Screen size: about 270,000 compounds; about 620 (0.23%) were called active. The shares of active, inactive and inconclusive entries below differ from those in the screen. The call rests on the fitted dose curve; in most records, active means well fitted inhibition curve with a large enough effect in the polarisation, with a control signal flat (not every such curve was filed as active); inconclusive means small, poorly fitted or top-dose-only effect, or effect the other way, or a change in a side signal; inactive means no such curve, though single readings can be large or run the other way; the % refers to the polarisation. Where the call is inconclusive, the potency comes from a doubtful curve fit. “Side channel” marks fits to a control or component signal instead of the main read-out.
Each molecule was assayed against Menin (Homo sapiens) (UniProt O00255) (assay: qHTS Assay for Inhibitors Targeting the Menin-MLL Interaction in MLL Related Leukemias: Competition With Texas Red Labeled MLL-derived Mutant Peptide). Conditions: fluorescence polarization; FP activity change, negative = inhibition: at 61.6 µM (top of the series).
Potency means the concentration at half of the fitted maximal effect; tags describe the fitted curve by direction and shape or compound fluorescence and quenching.
Wherever FP activity change, negative = inhibition is given: % of control where 0% means no effect.

UniProt O00255, sequence (O00255 whole entry, looked up): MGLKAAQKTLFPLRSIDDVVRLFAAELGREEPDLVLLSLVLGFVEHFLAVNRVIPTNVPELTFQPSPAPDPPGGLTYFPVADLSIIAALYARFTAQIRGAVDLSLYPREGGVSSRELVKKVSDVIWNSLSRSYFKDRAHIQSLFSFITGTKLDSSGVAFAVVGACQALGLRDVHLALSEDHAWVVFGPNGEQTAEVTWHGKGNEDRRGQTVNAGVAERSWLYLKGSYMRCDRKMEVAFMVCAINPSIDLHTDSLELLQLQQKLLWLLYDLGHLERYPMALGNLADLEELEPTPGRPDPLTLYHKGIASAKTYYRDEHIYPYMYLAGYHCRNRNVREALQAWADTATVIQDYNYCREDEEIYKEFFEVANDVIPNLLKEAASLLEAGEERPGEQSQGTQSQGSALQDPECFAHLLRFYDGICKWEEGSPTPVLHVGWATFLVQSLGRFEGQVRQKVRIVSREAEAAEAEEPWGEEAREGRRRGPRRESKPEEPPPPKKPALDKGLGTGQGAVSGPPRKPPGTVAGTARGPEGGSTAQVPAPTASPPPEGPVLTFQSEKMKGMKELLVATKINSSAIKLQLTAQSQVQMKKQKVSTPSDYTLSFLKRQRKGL

Compound | Potency | FP activity change, negative = inhibition
COc1ccc(CNc2cccc(F)c2)cc1Br | inconclusive: 28.2 µM [quencher, side channel, single point] | –
O=c1oc2ccccc2c(Nc2ccc3ccccc3c2)c1[N+](=O)[O-] | inconclusive: 7.08 µM [quencher, side channel, single point] | –
Cc1ccc(Nc2nc(-c3ccccc3)cs2)nc1 | inconclusive: 31.6 µM [quencher, side channel, partial curve] | –
COc1cc(/C=C/C(=O)OCC(=O)Nc2ccc(S(=O)(=O)N3CCCC3)cc2)ccc1O | inconclusive: 14.1 µM [quencher, side channel, partial curve] | –
Cc1cc(C)nc(NC(=O)/C=C/c2ccccc2Cl)c1 | inconclusive: 28.2 µM [quencher, side channel, single point] | –
CS(=O)(=O)c1ncc(Cl)c(C(=O)Nc2ccc(OC(F)F)cc2)n1 | inconclusive: 10 µM [quencher, partial curve] | –
CCc1ccc(N=C2NC(=O)/C(=C/c3cc(OC)c(O)c(OC)c3)S2)cc1 | inconclusive: 22.4 µM [quencher, side channel, single point] | –
O=S(=O)(Nc1nccs1)c1ccc(NS(=O)(=O)c2cccs2)cc1 | inactive | –
COc1ccc(N/N=C(/C#N)S(=O)(=O)c2nsc(C)c2C#N)cc1 | inconclusive: 28.2 µM [quencher, side channel, partial curve] | –
CCOC(=O)N1CCC(NC(=O)CCN2C(=O)COc3ccccc32)CC1 | inactive | –
C#CCOc1c(Br)cc(/C=C2/C(=O)ON=C2C)cc1OCC | inconclusive: 14.1 µM [quencher, side channel, single point] | –
CC/C=C\C/C=C\C/C=C\C/C=C\C/C=C\C/C=C\CCC(=O)NCC(=O)O | inactive | –
CCN(CC)CCN1C(=O)c2ccccc2NC1c1cc(OC)c(OC)c(OC)c1 (stereo not drawn) | inactive | –
N#CCc1nn2c(-c3ccccc3)ccnc2c1C#N | inconclusive: 11.2 µM [inhibitor, partial curve, poor fit] | –
COc1ccc(OCC(=O)Nc2ccc(C(=O)Nc3ccccc3C(=O)O)cc2)cc1 | inconclusive: 14.1 µM [quencher, side channel, partial curve] | –
Cc1nc2c(-c3ccc(Cl)cc3)cnn2c(N)c1-c1ccc(F)cc1 | inconclusive: 10 µM [quencher, side channel, partial curve] | –
CCCOc1cccc(C2C(C(=O)c3ccc(C)o3)=C(O)C(=O)N2c2nc(C)c(C(C)=O)s2)c1 (stereo not drawn) | inconclusive: 11.2 µM [quencher, side channel, partial curve] | –
Cc1cc(C)n(CC(C)NCc2cn[nH]c2-c2ccc(C)c(C)c2)n1 (stereo not drawn) | inconclusive: 17.8 µM [inhibitor, partial curve] | –
COC(=O)c1sc2cc(C(F)(F)F)cnc2c1-c1cccnc1 | inactive | –
COc1cc(NC(=O)CSc2nc3c(C)ccc(C)c3cc2C)c(C(=O)O)cc1OC | inconclusive: 20 µM [quencher, side channel, single point] | –

Compound | Potency | FP activity change, negative = inhibition
Cc1cc(=O)[nH]c(SCn2nnc3ccccc3c2=O)n1 | inactive | –
Cc1ccsc1/C=C/c1ccc2cccc(O)c2n1 | inconclusive: 22.4 µM [quencher, side channel, partial curve] | –
C#CCn1c(=O)c2c(nc(/C=C/c3cccc(OC)c3)n2C)n(CCCOP(=O)(O)O)c1=O | inactive | –
C/C(=N\Nc1nncc2ccccc12)c1ccc(Cl)c([N+](=O)[O-])c1 | inconclusive: 39.8 µM [quencher, side channel, single point] | –
COc1ccccc1N=Nc1c(O)[nH]c2ccc(Br)cc12 | inconclusive: 39.8 µM [fluorescent, side channel, single point] | –
COc1ccc(-c2cc(C(F)(F)F)nc(-n3cncn3)n2)cc1 | inactive | –
COc1cccc(CN2CCN(c3ccc(F)cc3)C2=O)c1 | inactive | –
CCOC(=O)c1ccc(NC(=O)COC(=O)c2cccc(Oc3ccccc3)c2)cc1 | inconclusive: 14.1 µM [quencher, side channel, single point] | –
COc1ccc(CCN(C(=O)C(F)(F)F)C(C(=O)NC2CCCCC2)c2ccc(C)s2)cc1OC (stereo not drawn) | inconclusive: 28.2 µM [inhibitor, partial curve] | –
CC(C)C(=O)Nc1cccc(NC(=S)NC(=O)C(c2ccccc2)c2ccccc2)c1 | inconclusive: 39.8 µM [inhibitor, single point] | –
COc1ccc(C(O)(C(C)C)C(CN2CCOCC2)c2ccc(Cl)cc2)cc1 (stereo not drawn) | inconclusive: 15.8 µM [fluorescent, side channel, partial curve] | –
O=c1oc(-c2cccc([N+](=O)[O-])c2)nc2ccccc12 | inconclusive: 35.5 µM [quencher, side channel, single point] | –
CCNC(=O)COc1ccc(/C=C2\COc3ccccc3C2=O)cc1OC | inconclusive: 20 µM [inhibitor, partial curve] | –
O=C(NCc1ccc(Cl)cc1)c1cc(-c2ccco2)on1 | inconclusive: 12.6 µM [inhibitor, partial curve, poor fit] | –
Cc1cccc(Cn2ccc(-c3ccc(Cl)cc3)c(C#N)c2=O)c1 | inconclusive: 25.1 µM [fluorescent, side channel, partial curve] | –
COc1ccccc1NC(=S)N(CCc1c(C)[nH]c2ccccc12)Cc1cccs1 | inconclusive: 10 µM [quencher, side channel, partial curve] | –
COC(=O)C1=C(C(=O)OC)[C@@H]2N(C)c3ccccc3[C@@]23C[C@@H](C(=O)OC)N(S(=O)(=O)c2ccc(OC)cc2)C3=N1 | – | inactive: -10.5% [at 11.7 µM]
Cc1ccccc1NC(=O)CSc1nc(N)c(C#N)c(-c2cccs2)c1C#N | inconclusive: 25.1 µM [inhibitor, single point] | –
CC(C)n1cc(/C=N/Nc2ccc(Cl)c(C(=O)O)c2)c2ccccc21 | inconclusive: 15.8 µM [quencher, side channel, partial curve] | –
O=C(COC(=O)c1ccccc1)NC1CCCC1 | inconclusive: 39.8 µM [inhibitor, partial curve, poor fit] | –

Compound | Potency | FP activity change, negative = inhibition
Cc1ccc(C)c(NC(=O)c2cc3c([nH]c4ccccc43)c(C)n2)c1 | inconclusive: 8.91 µM [quencher, full curve] | –
O=C(NN1C(=O)c2ccccc2NC1c1ccc([N+](=O)[O-])o1)c1ccc([N+](=O)[O-])cc1 (stereo not drawn) | inactive | –
COc1cccc(N2CCN(CC(=O)NC(=O)NCc3ccco3)CC2)c1 | inconclusive: 31.6 µM [quencher, side channel, single point] | –
Cc1ccc2nc(NC(=O)C3CCN(S(=O)(=O)c4cccs4)CC3)sc2c1 | inconclusive: 20 µM [inhibitor, single point] | –
C#CCOCCOCCOCCNc1nc(N2CCN(C(=O)C(CCC(=O)O)n3cc(C(N)CC(C)C)nn3)CC2)nc(N2CCN(C(=O)C(Cc3cc4ccccc4[nH]3)n3cc(C(N)Cc4ccc(O)cc4)nn3)CC2)n1 (stereo not drawn) | inconclusive: 7.08 µM [fluorescent, side channel, partial curve] | –
CCCN1C(=O)SC(CC(=O)Nc2ccc(Br)cc2)C1=O (stereo not drawn) | inconclusive: 31.6 µM [quencher, side channel, single point] | –
Cc1cccc(-c2nc(C#N)c(N3CCCCC3)o2)c1 | inconclusive: 15.8 µM [fluorescent, side channel, partial curve] | –
O=C(O)c1cc(Cl)c2c(c1)[C@@H]1C=CC[C@@H]1[C@H](c1ccc(S(=O)(=O)N3CCOCC3)cc1)N2 | inconclusive: 22.4 µM [quencher, side channel, partial curve] | –
CC(=O)Nc1ccc(NC(=O)c2ccc(COc3ccccc3Br)o2)cc1 | inconclusive: 39.8 µM [fluorescent, single point] | –
COc1ccc(NC(=O)CSc2nc(O)cc(=O)n2-c2ccc(OC)cc2)cc1 | inconclusive: 7.94 µM [quencher, side channel, partial curve] | –
CCOC(=O)C1(Cc2ccccc2)CCCN(C(=O)c2cn[nH]c2)C1 (stereo not drawn) | inconclusive: 39.8 µM [inhibitor, partial curve] | –
Cc1ccc(C)c(/C=C(\C(=O)O)c2ccc(S(=O)(=O)N3CCCCC3)s2)c1 | inconclusive: 15.8 µM [quencher, side channel, partial curve] | –
Cc1ccc(O)c(NC(=O)c2noc3c2CCCCC3)c1 | inconclusive: 31.6 µM [quencher, side channel, single point] | –
CC1(C)CCSC(/C=C/c2ccccc2)=N1 | active: 31.6 µM | –
O=S(=O)(c1ccc(-c2csc(=Nc3ccccc3)n2CCCN2CCOCC2)cc1)N1CCOCC1 | inconclusive: 28.2 µM [fluorescent, side channel, partial curve] | –
O=C(/C=C/c1ccco1)NC(=S)Nc1cccc(-c2nc3ccccc3o2)c1 | inconclusive: 14.1 µM [quencher, side channel, partial curve] | –
O=C(O)c1cccc(Nc2nc(Nc3ccccc3)nc(N3CCCC3)n2)c1 | inconclusive: 14.1 µM [quencher, side channel, partial curve] | –
COC(=O)C1=C(C)OC(N)=C(C#N)C1c1cc(OC)c(OCC(N)=O)cc1Cl (stereo not drawn) | inconclusive: 2.82 µM [inhibitor, partial curve] | –

Source: PubChem BioAssay AID1768 (National Center for Advancing Translational Sciences (NCATS), 2009)
